The supplement of paper PMC4967469

Tests used:
Experiment in all cases: Viability of human cancer cell lines after 72 h of drug (GDSC screen)
Y-39983 = compound: C[C@@H](N)c1ccc(C(=O)Nc2ccnc3[nH]ccc23)cc1 [Y-39983]; conditions: top dose 20 µM; top dose inferred
Experimental: (§1)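 Human cancer cell lines in 384-well plates, medium with 10% serum, drug for 72 h over a 256-fold dose range (nine 2-fold or five 4-fold steps up to the top dose). Adherent lines were fixed and stained with the nucleic acid dye Syto60, suspension lines read with resazurin; signal relative to control wells, capped at 0 and 100%. One two-parameter sigmoid per drug and line, fitted in a mixed model over all curves with the slope shared within a line.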

PHA-793887 = compound: CC(C)CC(=O)Nc1n[nH]c2c1CN(C(=O)C1CCN(C)CC1)C2(C)C [PHA-793887]; conditions: top dose 10.24 µM
Experimental: as §1

TPCA-1 = compound: NC(=O)Nc1sc(-c2ccc(F)cc2)cc1C(N)=O [TPCA-1]; conditions: top dose 20 µM
Experimental: as §1

Epothilone B = compound: C/C(=C\c1csc(C)n1)[C@@H]1C[C@@H]2O[C@]2(C)CCC[C@H](C)[C@H](O)[C@@H](C)C(=O)C(C)(C)[C@@H](O)CC(=O)O1 [Epothilone B]; conditions: top dose 0.032 µM; top dose inferred
Experimental: as §1

PLX4720 = compound: CCCS(=O)(=O)Nc1ccc(F)c(C(=O)c2c[nH]c3ncc(Cl)cc23)c1F [PLX4720]; conditions: top dose 10 µM
Experimental: as §1

[1] = screen: GDSC drug entry 1371, top dose inferred

Cell Line | AUC (Y-39983) | IC50 (Y-39983) [µM] | AUC (PHA-793887) | IC50 (PHA-793887) [µM] | AUC (TPCA-1) | IC50 (TPCA-1) [µM] | AUC (Epothilone B) | IC50 (Epothilone B) [µM] | AUC (PLX4720; screen: GDSC drug entry 1036) | IC50 (PLX4720; screen: GDSC drug entry 1036) [µM] | AUC (PLX4720; [1]) | IC50 (PLX4720; [1]) [µM]
JHH-4 (liver, adherent) | 0.762 | 7.15 | 0.98 | > 10.2 | 0.697 | 4.45 | 0.558 | 0.00288 | 0.936 | > 10 | 0.946 | > 10
JHH-6 (liver, adherent) | 0.927 | > 20 | 0.952 | > 10.2 | 0.928 | > 20 | 0.483 | 0.00179 | – | – | 0.982 | > 10
JHH-7 (liver, adherent) | 0.982 | > 20 | 0.972 | > 10.2 | 0.938 | > 20 | 0.306 | 0.000594 | 0.982 | > 10 | 0.977 | > 10
JHU-011 (head and neck, adherent) | 0.959 | > 20 | 0.625 | 1.4 | 0.786 | 8.47 | 0.239 | 0.000358 | 0.893 | > 10 | – | –
JHU-022 (head and neck, adherent) | 0.962 | > 20 | 0.941 | > 10.2 | 0.973 | > 20 | 0.944 | > 0.032 | 0.973 | > 10 | 0.974 | > 10
JIMT-1 (breast, adherent) | 0.978 | > 20 | 0.937 | > 10.2 | 0.933 | > 20 | 0.365 | 0.00082 | 0.908 | > 10 | 0.955 | > 10
K2 (melanoma, adherent) | 0.982 | > 20 | 0.957 | > 10.2 | 0.962 | > 20 | 0.839 | 0.0317 | 0.776 | 5.25 | 0.561 | 0.962
KMH-2 (thyroid, adherent) | 0.982 | > 20 | 0.899 | > 10.2 | 0.955 | > 20 | 0.41 | 0.00117 | 0.989 | > 10 | 0.982 | > 10
KMRC-1 (kidney, adherent) | 0.964 | > 20 | 0.987 | > 10.2 | 0.97 | > 20 | 0.858 | 0.029 | 0.987 | > 10 | – | –
KMRC-20 (kidney, adherent) | 0.973 | > 20 | 0.989 | > 10.2 | 0.97 | > 20 | 0.84 | 0.0225 | 0.972 | > 10 | 0.988 | > 10
KON (head and neck, adherent) | 0.983 | > 20 | 0.983 | > 10.2 | 0.986 | > 20 | 0.203 | 0.00027 | 0.96 | > 10 | 0.952 | > 10
KOSC-2 (head and neck, adherent) | 0.97 | > 20 | 0.94 | > 10.2 | 0.91 | > 20 | 0.578 | 0.0033 | – | – | 0.929 | > 10
KP-2 (pancreas, adherent) | 0.985 | > 20 | 0.759 | 3.85 | 0.966 | > 20 | 0.372 | 0.000863 | 0.904 | > 10 | 0.946 | > 10
KP-3 (pancreas, adherent) | 0.935 | > 20 | 0.752 | 3.97 | 0.816 | 13.9 | 0.656 | 0.00591 | 0.969 | > 10 | 0.938 | > 10
KP-4 (pancreas, adherent) | 0.985 | > 20 | 0.816 | 5.39 | 0.954 | > 20 | 0.344 | 0.000752 | – | – | 0.89 | > 10
KU-19-19 (bladder, adherent) | 0.964 | > 20 | 0.912 | > 10.2 | 0.986 | > 20 | 0.984 | > 0.032 | 0.934 | > 10 | 0.985 | > 10
KYSE-50 (oesophagus, adherent) | 0.959 | > 20 | 0.824 | 5.42 | 0.897 | > 20 | 0.296 | 0.000564 | 0.981 | > 10 | 0.989 | > 10
KYSE-70 (oesophagus, adherent) | 0.975 | > 20 | 0.968 | > 10.2 | 0.96 | > 20 | 0.708 | 0.00822 | – | – | 0.985 | > 10
KYSE-140 (oesophagus, adherent) | 0.938 | > 20 | 0.677 | 2.14 | 0.821 | 13.6 | 0.426 | – | 0.905 | > 10 | – | –
KYSE-150 (oesophagus, adherent) | 0.968 | > 20 | 0.886 | > 10.2 | 0.886 | > 20 | 0.353 | 0.000799 | 0.981 | > 10 | 0.988 | > 10
KYSE-180 (oesophagus, adherent) | 0.889 | > 20 | 0.835 | 6.32 | 0.856 | 15 | 0.34 | 0.000733 | – | – | 0.93 | > 10
KYSE-220 (oesophagus, adherent) | 0.982 | > 20 | 0.771 | 4.13 | 0.831 | 13.6 | 0.44 | 0.00136 | 0.979 | > 10 | 0.984 | > 10
KYSE-270 (oesophagus, adherent) | 0.933 | > 20 | 0.744 | 2.81 | 0.911 | > 20 | 0.274 | 0.000513 | – | – | 0.99 | > 10
KYSE-410 (oesophagus, adherent) | 0.957 | > 20 | 0.852 | 8.7 | 0.961 | > 20 | 0.413 | 0.00114 | 0.983 | > 10 | 0.978 | > 10

By IC50 is meant the dose at which the fit gives 50% viability; a fit beyond the top or the lowest dose is shown as a bound at that dose. AUC, from the same fit, is the share of area under the viability curve across the 256-fold dose range; values near 1 show little effect. For some assays here: Where the top dose is marked as inferred, it was calculated from the reported fits. For some assays here: Where an entry number is given, a second screen of the drug exists; the two often differ.
